Some of the results follow.
Legend:
Experiment in all cases: glycan array binding signal (z-score within array); higher = stronger binding
Settings in all cases: glycan notation: IUPAC condensed, linker removed
[1] = target: Neu5Ac(a2-6)Gal(b1-4)GlcNAc(b1-2)Man(a1-3)[Man(a1-6)]Man(b1-4)GlcNAc(b1-4)GlcNAc
Summary of the method: (§1)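 The binding signal is a Z-score computed within each array. Data were drawn from 3228 arrays in the Consortium for Functional Glycomics database, restricted to those with a known protein sequence. Scores were averaged over arrays of the same protein sequence at different concentrations or buffers, and over linkers, and negative values can be taken as non-binding.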

[2] = target: Neu5Ac(a2-6)Gal(b1-4)GlcNAc(b1-2)Man(a1-3)[Neu5Ac(a2-3)Gal(b1-4)GlcNAc(b1-2)Man(a1-6)]Man(b1-4)GlcNAc(b1-4)GlcNAc
Summary of the method: as §1

[3] = target: Neu5Ac(a2-6)Gal(b1-4)GlcNAc(b1-2)Man(a1-3)[Neu5Ac(a2-6)Gal(b1-4)GlcNAc(b1-2)Man(a1-6)]Man(b1-4)GlcNAc(b1-4)GlcNAc
Summary of the method: as §1

[4] = target: Neu5Ac(a2-6)Gal(b1-4)GlcNAc(b1-2)Man(a1-3)[Neu5Ac(a2-6)Gal(b1-4)GlcNAc(b1-2)Man(a1-6)]Man(b1-4)GlcNAc(b1-4)[Fuc(a1-6)]GlcNAc
Summary of the method: as §1

[5] = target: Neu5Ac(a2-6)Gal(b1-4)GlcNAc(b1-2)Man(a1-6)Man(b1-4)GlcNAc(b1-4)GlcNAc
Summary of the method: as §1

[6] = target: Neu5Ac(a2-6)Gal(b1-4)GlcNAc(b1-2)Man(a1-6)[Gal(b1-4)GlcNAc(b1-2)Man(a1-3)]Man(b1-4)GlcNAc(b1-4)GlcNAc
Summary of the method: as §1

[7] = target: Neu5Ac(a2-6)Gal(b1-4)GlcNAc(b1-2)Man(a1-6)[GlcNAc(b1-2)Man(a1-3)]Man(b1-4)GlcNAc(b1-4)GlcNAc
Summary of the method: as §1

[8] = target: Neu5Ac(a2-6)Gal(b1-4)GlcNAc(b1-2)Man(a1-6)[Man(a1-3)]Man(b1-4)GlcNAc(b1-4)GlcNAc
Summary of the method: as §1

[9] = target: Neu5Ac(a2-6)Gal(b1-4)GlcNAc(b1-2)[Neu5Ac(a2-6)Gal(b1-4)GlcNAc(b1-4)]Man(a1-3)[GlcNAc(b1-4)][Neu5Ac(a2-6)Gal(b1-4)GlcNAc(b1-2)[Neu5Ac(a2-6)Gal(b1-4)GlcNAc(b1-6)]Man(a1-6)]Man(b1-4)GlcNAc(b1-4)GlcNAc
Summary of the method: as §1

[10] = target: Neu5Ac(a2-6)Gal(b1-4)GlcNAc(b1-2)[Neu5Ac(a2-6)Gal(b1-4)GlcNAc(b1-4)]Man(a1-3)[GlcNAc(b1-4)][Neu5Ac(a2-6)Gal(b1-4)GlcNAc(b1-4)Man(a1-6)]Man(b1-4)GlcNAc(b1-4)GlcNAc
Summary of the method: as §1

[11] = target: Neu5Ac(a2-6)Gal(b1-4)GlcNAc(b1-2)[Neu5Ac(a2-6)Gal(b1-4)GlcNAc(b1-6)]Man(a1-6)[Neu5Ac(a2-6)Gal(b1-4)GlcNAc(b1-2)Man(a1-3)][GlcNAc(b1-4)]Man(b1-4)GlcNAc(b1-4)GlcNAc
Summary of the method: as §1

[12] = target: Neu5Ac(a2-6)Gal(b1-4)GlcNAc(b1-3)Gal(b1-3)GlcNAc
Summary of the method: as §1

[13] = target: Neu5Ac(a2-6)Gal(b1-4)GlcNAc(b1-3)Gal(b1-4)GlcNAc
Summary of the method: as §1

[14] = target: Neu5Ac(a2-6)Gal(b1-4)GlcNAc(b1-3)Gal(b1-4)GlcNAc(b1-2)Man(a1-3)[Neu5Ac(a2-6)Gal(b1-4)GlcNAc(b1-3)Gal(b1-4)GlcNAc(b1-2)Man(a1-6)]GalNAc
Summary of the method: as §1

[15] = target: Neu5Ac(a2-6)Gal(b1-4)GlcNAc(b1-3)Gal(b1-4)GlcNAc(b1-3)Gal(b1-4)GlcNAc
Summary of the method: as §1

[16] = target: Neu5Ac(a2-6)Gal(b1-4)GlcNAc(b1-3)Gal(b1-4)GlcNAc(b1-3)Gal(b1-4)GlcNAc(b1-2)Man(a1-3)[Neu5Ac(a2-6)Gal(b1-4)GlcNAc(b1-3)Gal(b1-4)GlcNAc(b1-3)Gal(b1-4)GlcNAc(b1-2)Man(a1-6)]GalNAc
Summary of the method: as §1

[17] = target: Neu5Ac(a2-6)Gal(b1-4)GlcNAc(b1-3)Gal(b1-4)GlcNAc(b1-3)GalNAc
Summary of the method: as §1

[18] = target: Neu5Ac(a2-6)Gal(b1-4)GlcNAc(b1-3)Gal(b1-4)GlcNAc(b1-3)[Neu5Ac(a2-6)Gal(b1-4)GlcNAc(b1-3)Gal(b1-4)GlcNAc(b1-6)]GalNAc
Summary of the method: as §1

[19] = target: Neu5Ac(a2-6)Gal(b1-4)GlcNAc(b1-3)Gal(b1-4)GlcNAc(b1-6)[Gal(b1-3)]GalNAc
Summary of the method: as §1

[20] = target: Neu5Ac(a2-6)Gal(b1-4)GlcNAc(b1-3)Gal(b1-4)[Fuc(a1-3)]GlcNAc(b1-3)Gal(b1-4)[Fuc(a1-3)]GlcNAc
Summary of the method: as §1

[21] = target: Neu5Ac(a2-6)Gal(b1-4)GlcNAc(b1-3)GalNAc
Summary of the method: as §1

[22] = target: Neu5Ac(a2-6)Gal(b1-4)GlcNAc(b1-3)[Neu5Ac(a2-6)Gal(b1-4)GlcNAc(b1-6)]GalNAc
Summary of the method: as §1

[23] = target: Neu5Ac(a2-6)Gal(b1-4)GlcNAc(b1-6)GalNAc
Summary of the method: as §1

[24] = target: Neu5Ac(a2-6)Gal(b1-4)GlcNAc(b1-6)[Gal(b1-3)GlcNAc(b1-3)]Gal(b1-4)Glc
Summary of the method: as §1

[25] = target: Neu5Ac(a2-6)Gal(b1-4)GlcNAc(b1-6)[Gal(b1-3)]GalNAc
Summary of the method: as §1

[26] = target: Neu5Ac(a2-6)Gal(b1-4)GlcNAc6S
Summary of the method: as §1

Neu5Ac(a2-6)GalNAc = target: Neu5Ac(a2-6)GalNAc
Summary of the method: as §1

[27] = target: Neu5Ac(a2-6)GalNAc(b1-4)GlcNAc
Summary of the method: as §1

[28] = target: Neu5Ac(a2-6)GalNAc(b1-4)GlcNAc6S
Summary of the method: as §1

[29] = target: Neu5Ac(a2-6)GlcNAc(b1-4)GlcNAc
Summary of the method: as §1

B1: CBM13 2a (Mycobacterium tuberculosum), P64849 (protein)
chain: DGPVQLKSRLGDVCLDAPSGSWFSPLVINPCNGTDFQRWNLTDDRQVESVAFPGECVNIGNALWARLQPCVNWISQHWTVQPDGLVKSDLDACLTVLGGPDPGTWVSTRWCDPNAPDQQWDSVPLEHHHHHH
For B1, which “glycan array binding signal (z-score)” value [1] is on record?
Its value is -0.039.

And the “glycan array binding signal (z-score)” value [2]?
The value was -0.182.

What about the “glycan array binding signal (z-score)” value [3] of the same binder?
The value was -0.069.

And the “glycan array binding signal (z-score)” value [4]?
Its value is -0.14.

What about the “glycan array binding signal (z-score)” value [5] of the same binder?
The value was -0.157.

What about the “glycan array binding signal (z-score)” value [6] of the same binder?
Its value is -0.18.

And the “glycan array binding signal (z-score)” value [7]?
The value was -0.189.

What about the “glycan array binding signal (z-score)” value [8] of the same binder?
The value was -0.19.

And the “glycan array binding signal (z-score)” value [9]?
Its value is 0.194.

What about the “glycan array binding signal (z-score)” value [10] of the same binder?
Its value is 0.096.

And the “glycan array binding signal (z-score)” value [11]?
The value was -0.088.

And the “glycan array binding signal (z-score)” value [12]?
The value was -0.366.

What about the “glycan array binding signal (z-score)” value [13] of the same binder?
Its value is -0.136.

What about the “glycan array binding signal (z-score)” value [14] of the same binder?
The value was 0.542.

And the “glycan array binding signal (z-score)” value [15]?
Its value is -0.13.

What about the “glycan array binding signal (z-score)” value [16] of the same binder?
Its value is 4.67.

And the “glycan array binding signal (z-score)” value [17]?
Its value is 0.076.

What about the “glycan array binding signal (z-score)” value [18] of the same binder?
Its value is 8.64.

What about the “glycan array binding signal (z-score)” value [19] of the same binder?
The value was 2.09.

What about the “glycan array binding signal (z-score)” value [20] of the same binder?
The value was 0.002.

What about the “glycan array binding signal (z-score)” value [21] of the same binder?
Its value is -0.215.

And the “glycan array binding signal (z-score)” value [22]?
Its value is 0.141.

And the “glycan array binding signal (z-score)” value [23]?
Its value is -0.003.

And the “glycan array binding signal (z-score)” value [24]?
Its value is -0.077.

What about the “glycan array binding signal (z-score)” value [25] of the same binder?
Its value is -0.121.

And the “glycan array binding signal (z-score)” value [26]?
Its value is 0.079.

And the “glycan array binding signal (z-score)” value (Neu5Ac(a2-6)GalNAc)?
Its value is -0.346.

What about the “glycan array binding signal (z-score)” value [27] of the same binder?
Its value is -0.192.

And the “glycan array binding signal (z-score)” value [28]?
Its value is 0.025.

What about the “glycan array binding signal (z-score)” value [29] of the same binder?
Its value is -0.221.

— the supplement of paper PMC8728848
